{
  "source": "the supplement of paper PMC10126150",
  "note": "Values marked as one replicate rest on one cluster of the flow cell; about a third of the high ones do not repeat.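 Also: ATP exposure 15 min at 22 °C before imaging.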",
  "data": [
    {"test_system": "ATP", "test": "switch fluorescence ratio, 500 uM ATP over buffer (Cy3 cluster intensity, sum of 5 cycles each) (fold (ratio)); higher = stronger signal-on switching upon ATP binding; sequences stand for … in TCGTCGGCAGCGTCAGATGTGTATAAGAGACAGTTTTTTTTTTTTTTTTTTTTTTTTT…TC", "details": "aptamer strand: ATP DNA aptamer (quencher-CACCTGGGGGAGTATTGCGGAGGAAGG + anchor), 100 nM annealed; ATP concentration: 500 uM; one replicate", "procedure,_shortened": "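The quencher-labelled ATP aptamer, at 100 nM, was annealed to Cy3-labelled switching-strand clusters on a modified Illumina MiSeq flow-cell. The clusters were imaged in selection buffer, then after 15 min with 500 uM ATP at 22 °C, and this buffer/ATP cycle ran five times with NaOH stripping and re-annealing between runs. Per-cluster fluorescence ratios, summed target-cycle over summed buffer-cycle Cy3 intensity, were averaged per switch-domain sequence. Clusters outside 100-1000 RFU were excluded.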", "values": [
      {"sequence": "TGGATAGACG", "switch fluorescence ratio": 0.897},
      {"sequence": "AGTAGCCACC", "switch fluorescence ratio": 1.04},
      {"sequence": "CCTGTTGGGT", "switch fluorescence ratio": 1.04},
      {"sequence": "CTTTCCGCTG", "switch fluorescence ratio": 2.39},
      {"sequence": "CAACCGTTGC", "switch fluorescence ratio": 1.7},
      {"sequence": "CGGGTTGCGT", "switch fluorescence ratio": 0.981},
      {"sequence": "GCCCGGGGCA", "switch fluorescence ratio": 1.02},
      {"sequence": "GAGTCAAGT", "switch fluorescence ratio": 0.98},
      {"sequence": "TTAGCGCGG", "switch fluorescence ratio": 1.03},
      {"sequence": "GATTATTGTG", "switch fluorescence ratio": 1},
      {"sequence": "GTCTCTAGAA", "switch fluorescence ratio": 0.983},
      {"sequence": "GTTAGCGA", "switch fluorescence ratio": 1.08},
      {"sequence": "TTGGTCTGCG", "switch fluorescence ratio": 0.943},
      {"sequence": "GGAAGGTTGG", "switch fluorescence ratio": 0.957},
      {"sequence": "TACTGGGAAC", "switch fluorescence ratio": 1.02},
      {"sequence": "GGTATAGGCG", "switch fluorescence ratio": 0.849},
      {"sequence": "AATAGTTCGT", "switch fluorescence ratio": 1},
      {"sequence": "CAGAGCTTAT", "switch fluorescence ratio": 1.13},
      {"sequence": "TCGGTCTTCG", "switch fluorescence ratio": 1.02},
      {"sequence": "CAAACTCCCG", "switch fluorescence ratio": 1.24},
      {"sequence": "TATTAATGGT", "switch fluorescence ratio": 0.947},
      {"sequence": "GTAAATTGAG", "switch fluorescence ratio": 1.02},
      {"sequence": "CATGAGCATC", "switch fluorescence ratio": 1.18},
      {"sequence": "TAAGGGAAAG", "switch fluorescence ratio": 0.957},
      {"sequence": "ACATCCAAAC", "switch fluorescence ratio": 0.998},
      {"sequence": "ATGGTTTATT", "switch fluorescence ratio": 1.01},
      {"sequence": "TCTGGTCCCC", "switch fluorescence ratio": 0.995},
      {"sequence": "GGGGCCTACG", "switch fluorescence ratio": 1.12},
      {"sequence": "GCATCTGGCT", "switch fluorescence ratio": 1.02},
      {"sequence": "CGGGCTTATC", "switch fluorescence ratio": 1.01},
      {"sequence": "GAAGGGTCCG", "switch fluorescence ratio": 0.904},
      {"sequence": "AAGCCATACT", "switch fluorescence ratio": 1.97},
      {"sequence": "AGGTAAAAT", "switch fluorescence ratio": 0.971},
      {"sequence": "AATTGTCCTA", "switch fluorescence ratio": 0.955},
      {"sequence": "CCTGCAAACG", "switch fluorescence ratio": 4.16},
      {"sequence": "TCGGTAATTT", "switch fluorescence ratio": 1.01},
      {"sequence": "TACCATAGCT", "switch fluorescence ratio": 1.11},
      {"sequence": "TGAGCATGAC", "switch fluorescence ratio": 1.58},
      {"sequence": "AAGTGAGGC", "switch fluorescence ratio": 0.923},
      {"sequence": "ACGACCAGTC", "switch fluorescence ratio": 1.19},
      {"sequence": "TTAGTCTATT", "switch fluorescence ratio": 0.976},
      {"sequence": "AGAGTGACTC", "switch fluorescence ratio": 1},
      {"sequence": "ACGGGCGCTG", "switch fluorescence ratio": 1.03},
      {"sequence": "GGTCGGTGGG", "switch fluorescence ratio": 0.948},
      {"sequence": "TATAATAGGC", "switch fluorescence ratio": 0.982},
      {"sequence": "AAGGGCGGG", "switch fluorescence ratio": 1.03},
      {"sequence": "ACCTTATTAT", "switch fluorescence ratio": 1.04},
      {"sequence": "GCATGGGGGA", "switch fluorescence ratio": 0.995},
      {"sequence": "GGTGTAGACA", "switch fluorescence ratio": 0.995},
      {"sequence": "ACTGATCTTG", "switch fluorescence ratio": 1.04},
      {"sequence": "TTGGTCTACT", "switch fluorescence ratio": 0.972},
      {"sequence": "CGGTAAGTAT", "switch fluorescence ratio": 0.983},
      {"sequence": "GTACTACAGC", "switch fluorescence ratio": 1.05},
      {"sequence": "CGCATTTAAC", "switch fluorescence ratio": 3.72},
      {"sequence": "CTTAACGCCA", "switch fluorescence ratio": 1.08},
      {"sequence": "CTACTATCGC", "switch fluorescence ratio": 1.09},
      {"sequence": "AGGCACAGCG", "switch fluorescence ratio": 0.992},
      {"sequence": "TATGTCTTGA", "switch fluorescence ratio": 1.03},
      {"sequence": "GCTCGATTAT", "switch fluorescence ratio": 0.984},
      {"sequence": "AACAAGAAAC", "switch fluorescence ratio": 1.05},
      {"sequence": "ACCCTTCCGT", "switch fluorescence ratio": 1.92},
      {"sequence": "GTGTAGGTGG", "switch fluorescence ratio": 0.999},
      {"sequence": "TTTGGTGT", "switch fluorescence ratio": 1.02},
      {"sequence": "ACGATGCCAA", "switch fluorescence ratio": 1.08},
      {"sequence": "GCTAGTGTTT", "switch fluorescence ratio": 1.01},
      {"sequence": "TTGAACTGCA", "switch fluorescence ratio": 1.04},
      {"sequence": "GGTTGGGTTC", "switch fluorescence ratio": 0.957},
      {"sequence": "TCCAAAAACC", "switch fluorescence ratio": 1.09},
      {"sequence": "TCGGCGCCAG", "switch fluorescence ratio": 0.972},
      {"sequence": "AGCCCTACAT", "switch fluorescence ratio": 1.09},
      {"sequence": "TCGGCATTCC", "switch fluorescence ratio": 1.76},
      {"sequence": "TCCGGTTTAT", "switch fluorescence ratio": 1.04},
      {"sequence": "GGGTGTCATA", "switch fluorescence ratio": 0.999},
      {"sequence": "AGTTTGAGCG", "switch fluorescence ratio": 1.04},
      {"sequence": "TTAGCGTGGA", "switch fluorescence ratio": 1.04},
      {"sequence": "CACAGCCCGA", "switch fluorescence ratio": 1.05},
      {"sequence": "TATGGTATTC", "switch fluorescence ratio": 1.01},
      {"sequence": "TGCGCATCCG", "switch fluorescence ratio": 1.01},
      {"sequence": "CTGTTGTCAG", "switch fluorescence ratio": 1.03},
      {"sequence": "TGGGCGTTCG", "switch fluorescence ratio": 1.03},
      {"sequence": "AGGAGACTTG", "switch fluorescence ratio": 1.01},
      {"sequence": "TGTGCGTGTG", "switch fluorescence ratio": 0.975},
      {"sequence": "CCTGCCGAAG", "switch fluorescence ratio": 2.84},
      {"sequence": "CTCATCCCAG", "switch fluorescence ratio": 2.14},
      {"sequence": "GAGGTAATTT", "switch fluorescence ratio": 0.963},
      {"sequence": "AGACATTAAG", "switch fluorescence ratio": 0.983},
      {"sequence": "TTAAAGGTAG", "switch fluorescence ratio": 1.04},
      {"sequence": "TTTGCA", "switch fluorescence ratio": 1.04},
      {"sequence": "GGAAGCAGTG", "switch fluorescence ratio": 1.09},
      {"sequence": "GACCTGGCGC", "switch fluorescence ratio": 1.08},
      {"sequence": "TCGTGATA", "switch fluorescence ratio": 1.07},
      {"sequence": "TTAGAGTTCT", "switch fluorescence ratio": 1.02},
      {"sequence": "TGTGATATGG", "switch fluorescence ratio": 1},
      {"sequence": "TGGGAGTCAT", "switch fluorescence ratio": 1.43},
      {"sequence": "TTGTGCTTTT", "switch fluorescence ratio": 1.03},
      {"sequence": "GACCGTATAG", "switch fluorescence ratio": 1},
      {"sequence": "GCGCAAGACA", "switch fluorescence ratio": 2.43},
      {"sequence": "CGTGTTCCGC", "switch fluorescence ratio": 0.976},
      {"sequence": "TGGTTGCCAG", "switch fluorescence ratio": 0.958},
      {"sequence": "GGATCCGGTA", "switch fluorescence ratio": 1.04}
    ]}
  ]
}
